Data reported in the supplement of paper PMC9927326.

Legend:
Assay in all cases: CLSI broth microdilution.
caspofungin = compound: CC[C@H](C)C[C@H](C)CCCCCCCCC(=O)N[C@H]1C[C@@H](O)[C@@H](NCCN)NC(=O)[C@@H]2[C@@H](O)CCN2C(=O)[C@H]([C@H](O)CCN)NC(=O)[C@H]([C@H](O)[C@@H](O)c2ccc(O)cc2)NC(=O)[C@@H]2C[C@@H](O)CN2C(=O)[C@H]([C@@H](C)O)NC1=O [caspofungin]
flucytosine = compound: Nc1[nH]c(=O)ncc1F [flucytosine]
itraconazole = compound: CCC(C)n1ncn(-c2ccc(N3CCN(c4ccc(OCC5COC(Cn6cncn6)(c6ccc(Cl)cc6Cl)O5)cc4)CC3)cc2)c1=O [itraconazole]
fluconazole = compound: OC(Cn1cncn1)(Cn1cncn1)c1ccc(F)cc1F [fluconazole]
voriconazole = compound: C[C@@H](c1ncncc1F)[C@](O)(Cn1cncn1)c1ccc(F)cc1F [voriconazole]
anidulafungin = compound: CCCCCOc1ccc(-c2ccc(-c3ccc(C(=O)N[C@H]4C[C@@H](O)[C@@H](O)NC(=O)[C@@H]5[C@@H](O)[C@@H](C)CN5C(=O)[C@H]([C@@H](C)O)NC(=O)[C@H]([C@H](O)[C@@H](O)c5ccc(O)cc5)NC(=O)[C@@H]5C[C@@H](O)CN5C(=O)[C@H]([C@@H](C)O)NC4=O)cc3)cc2)cc1 [anidulafungin]
micafungin = compound: CCCCCOc1ccc(-c2cc(-c3ccc(C(=O)N[C@H]4C[C@@H](O)[C@@H](O)NC(=O)[C@@H]5[C@@H](O)[C@@H](C)CN5C(=O)[C@H]([C@H](O)CC(N)=O)NC(=O)[C@H]([C@H](O)[C@@H](O)c5ccc(O)c(OS(=O)(=O)O)c5)NC(=O)[C@@H]5C[C@@H](O)CN5C(=O)[C@H]([C@@H](C)O)NC4=O)cc3)no2)cc1 [micafungin]
posaconazole = compound: CC[C@@H]([C@H](C)O)n1ncn(-c2ccc(N3CCN(c4ccc(OC[C@@H]5CO[C@@](Cn6cncn6)(c6ccc(F)cc6F)C5)cc4)CC3)cc2)c1=O [posaconazole]
amphotericin B = compound: C[C@@H]1[C@H](O)[C@@H](C)/C=C/C=C/C=C/C=C/C=C/C=C/C=C/[C@H](O[C@@H]2O[C@H](C)[C@@H](O)[C@H](N)[C@@H]2O)C[C@@H]2O[C@](O)(C[C@@H](O)C[C@@H](O)[C@H](O)CC[C@@H](O)C[C@@H](O)CC(=O)O[C@H]1C)C[C@H](O)[C@H]2C(=O)O [amphotericin B]

Test System	MIC (caspofungin)	MIC (flucytosine)	MIC (itraconazole)	MIC (fluconazole)	MIC (voriconazole)	MIC (anidulafungin)	MIC (micafungin)	MIC (posaconazole)	MIC (amphotericin B)
Candida albicans isolate 51 (Erg11p: K342R,E266D, Fur1p: WT, Tac1p: I558V,A377V,F189S,N174D,M170I,K87N)	0.03 mg/L [S]	≤ 0.06 mg/L [S]	0.06 mg/L [S]	1 mg/L [S]	≤ 0.008 mg/L [S]	0.06 mg/L [S]	0.015 mg/L [S]	0.015 mg/L [S]	0.25 mg/L [S]
Candida albicans isolate 52 (Erg11p: V488I,E266D, Fur1p: WT, Tac1p: N896S,I895T)	0.015 mg/L [S]	≤ 0.06 mg/L [S]	0.06 mg/L [S]	0.5 mg/L [S]	≤ 0.008 mg/L [S]	≤ 0.015 mg/L [S]	0.015 mg/L [S]	0.015 mg/L [S]	0.5 mg/L [S]
Candida albicans isolate 53 (Erg11p: V488I,E266D, Fur1p: WT, Tac1p: N896S,I895T)	0.03 mg/L [S]	≤ 0.06 mg/L [S]	0.12 mg/L [S]	0.5 mg/L [S]	≤ 0.008 mg/L [S]	≤ 0.015 mg/L [S]	0.015 mg/L [S]	0.06 mg/L [S]	0.5 mg/L [S]
Candida albicans isolate 54 (Erg11p: E266D,G129A, Fur1p: WT, Tac1p: R869Q,L695F,I558V,A377V,F189S,M170V,L131I)	0.015 mg/L [S]	≤ 0.06 mg/L [S]	≤ 0.015 mg/L [S]	0.5 mg/L [S]	≤ 0.008 mg/L [S]	≤ 0.015 mg/L [S]	0.015 mg/L [S]	0.015 mg/L [S]	0.25 mg/L [S]
Candida albicans isolate 55 (Erg11p: WT, Fur1p: WT, Tac1p: N896S)	0.03 mg/L [S]	≤ 0.06 mg/L [S]	0.03 mg/L [S]	≤ 0.12 mg/L [S]	≤ 0.008 mg/L [S]	0.06 mg/L [S]	≤ 0.008 mg/L [S]	0.015 mg/L [S]	0.5 mg/L [S]
Candida albicans isolate 56 (Erg11p: WT, Fur1p: WT, Tac1p: N896S)	0.03 mg/L [S]	0.12 mg/L [S]	0.03 mg/L [S]	0.25 mg/L [S]	≤ 0.008 mg/L [S]	≤ 0.015 mg/L [S]	≤ 0.008 mg/L [S]	0.03 mg/L [S]	0.5 mg/L [S]
Candida albicans isolate 57 (Erg11p: V488I,T486I,E266D, Fur1p: WT, Tac1p: N896S,I558V,A377V,F189S,N174D,M170I,K87N)	0.06 mg/L [S]	≤ 0.06 mg/L [S]	≤ 0.015 mg/L [S]	0.25 mg/L [S]	≤ 0.008 mg/L [S]	0.03 mg/L [S]	0.015 mg/L [S]	0.015 mg/L [S]	0.25 mg/L [S]
Candida albicans isolate 58 (Erg11p: WT, Fur1p: WT, Tac1p: WT)	0.03 mg/L [S]	≤ 0.06 mg/L [S]	≤ 0.015 mg/L [S]	0.25 mg/L [S]	≤ 0.008 mg/L [S]	≤ 0.015 mg/L [S]	0.015 mg/L [S]	≤ 0.008 mg/L [S]	0.25 mg/L [S]
Candida albicans isolate 59 (Erg11p: V437I,E266D, Fur1p: WT, Tac1p: F189S,N174D,M170I,A90T,K87N)	0.06 mg/L [S]	≤ 0.06 mg/L [S]	0.06 mg/L [S]	0.5 mg/L [S]	0.015 mg/L [S]	0.06 mg/L [S]	0.015 mg/L [S]	0.03 mg/L [S]	0.25 mg/L [S]
Candida albicans isolate 60 (Erg11p: WT, Fur1p: WT, Tac1p: WT)	0.03 mg/L [S]	≤ 0.06 mg/L [S]	0.03 mg/L [S]	0.5 mg/L [S]	≤ 0.008 mg/L [S]	0.03 mg/L [S]	≤ 0.008 mg/L [S]	0.03 mg/L [S]	0.25 mg/L [S]
Candida albicans isolate 61 (Erg11p: E266D, Fur1p: WT, Tac1p: I558V,A377V,F189S,N174D,M170I,K87N)	0.03 mg/L [S]	≤ 0.06 mg/L [S]	0.03 mg/L [S]	0.5 mg/L [S]	≤ 0.008 mg/L [S]	0.03 mg/L [S]	≤ 0.008 mg/L [S]	0.03 mg/L [S]	0.5 mg/L [S]
Candida albicans isolate 62 (Erg11p: E266D,G129A, Fur1p: WT, Tac1p: R869Q,L695F,I558V,A377V,F189S,M170V,L131I)	0.03 mg/L [S]	≤ 0.06 mg/L [S]	0.12 mg/L [S]	1 mg/L [S]	0.015 mg/L [S]	≤ 0.015 mg/L [S]	0.015 mg/L [S]	0.06 mg/L [S]	0.5 mg/L [S]
Candida albicans isolate 63 (Erg11p: Y132H,T123I, Fur1p: R101C, Tac1p: WT)	0.015 mg/L [S]	0.5 mg/L [S]	0.12 mg/L [S]	4 µg/mL	0.5 µg/mL	≤ 0.015 mg/L [S]	≤ 0.008 mg/L [S]	0.06 mg/L [S]	0.5 mg/L [S]
Candida albicans isolate 64 (Erg11p: WT, Fur1p: WT, Tac1p: I558V,A377V,F189S,N174D,M170I,K87N)	0.015 mg/L [S]	≤ 0.06 mg/L [S]	0.03 mg/L [S]	0.5 mg/L [S]	≤ 0.008 mg/L [S]	≤ 0.015 mg/L [S]	0.015 mg/L [S]	0.015 mg/L [S]	0.5 mg/L [S]
Candida albicans isolate 65 (Erg11p: E266D, Fur1p: WT, Tac1p: C908Y,A377V,N174D,M170I,I109N,K87N)	0.03 mg/L [S]	≤ 0.06 mg/L [S]	0.06 mg/L [S]	0.5 mg/L [S]	≤ 0.008 mg/L [S]	0.06 mg/L [S]	0.015 mg/L [S]	0.03 mg/L [S]	0.5 mg/L [S]
Candida albicans isolate 66 (Erg11p: WT, Fur1p: WT, Tac1p: I558V,A377V,F189S,N174D,M170I,K87N)	0.015 mg/L [S]	≤ 0.06 mg/L [S]	0.03 mg/L [S]	0.5 mg/L [S]	≤ 0.008 mg/L [S]	≤ 0.015 mg/L [S]	0.015 mg/L [S]	0.015 mg/L [S]	0.5 mg/L [S]
Candida albicans isolate 67 (Erg11p: WT, Fur1p: WT, Tac1p: N896S)	0.03 mg/L [S]	≤ 0.06 mg/L [S]	0.06 mg/L [S]	0.5 mg/L [S]	≤ 0.008 mg/L [S]	0.03 mg/L [S]	0.015 mg/L [S]	0.03 mg/L [S]	0.25 mg/L [S]

MIC of clinical C. albicans isolates, CLSI broth microdilution (ranges and time not stated); higher = less susceptible. Call: susceptible or wild type [S] / resistant or non-wild type [R] by CLSI breakpoints or epidemiological cut-offs; intermediate and dose-dependent carry no call here (the paper groups them with resistant). '<=' and '>=' mark each drug's lowest and highest value, inferred; the source prints them plain. Isolates are numbered anew.
